Consider 47 compounds from the supplement of paper PMC7580552.

The structures appear in SMILES notation. Structures can show the parent of a compound that is named as a salt. ± gives the standard deviation of the averaged measurements. Some of the results follow. Most values come without repeats; read them as rough.
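Further: stationary (unshaken) cultures in 96-well plates, started at OD600 0.05 from mid-exponential cells, with compounds supplied from DMSO stocks.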

The experiment deals with Escherichia coli W3110. The experiment in a line: planktonic growth (OD600) relative to untreated control; higher = more growth. Conditions: 10 µM; 20-24 h; 30 °C; TB.
Regarding `CCN1CCCC1CNC(=O)c1cc(S(=O)(=O)CC)c(N)cc1OC` (configuration not stated) [Amisulpride], the planktonic growth stood at 99%.

`Nc1nc(N)nc(-c2cc(Cl)ccc2Cl)n1` [Irsogladine maleate] came in with a planktonic growth of 96%. For `COc1cc(N)c(Cl)cc1C(=O)NC1CCN(Cc2ccccc2)CC1` [Clebopride maleate] the value was 94%; for `O=C(c1ccc(OCCN2CCCCC2)cc1)c1c(-c2ccc(O)cc2)sc2cc(O)ccc12` [Raloxifene hydrochloride], 102%.

In the case of `NS(=O)(=O)c1cc2c(cc1C(F)(F)F)NC(Cc1ccccc1)NS2(=O)=O` (configuration not stated) [Bendroflumethiazide], the planktonic growth was 92%. In turn, `CC(CN1c2ccccc2Sc2ccccc21)N(C)C` (configuration not stated) [Promethazine hydrochloride] registered a planktonic growth of 108%.

As for `CCOC(=O)C1=C(C)NC(C)=C(C(=O)OC)C1c1cccc([N+](=O)[O-])c1` (configuration not stated) [Nitrendipine], the planktonic growth came to 95%. In turn, `CCn1cc(C(=O)O)c(=O)c2cc(F)c(N3CCNCC3)cc21` [Norfloxacin] returned a planktonic growth of 20%.

Compound `CN(C)CCC(c1ccc(Cl)cc1)c1ccccn1` (configuration not stated) [Chlorpheniramine maleate] had a planktonic growth of 93%.

Compound `COc1cc(N)c(Cl)cc1C(=O)NC1CCN(CCCOc2ccc(F)cc2)CC1OC` (configuration not stated) [Cisapride] showed a planktonic growth of 102%.

For the compound `COC1=CC(=O)C[C@@H](C)[C@]12Oc1c(Cl)c(OC)cc(OC)c1C2=O` [Griseofulvin], the planktonic growth was found to be 94%. Next, `O=C(O)CNC(=O)C(CS)Cc1ccccc1` (configuration not stated) [Thiorphan]: 106%; `Cc1onc(-c2ccccc2)c1C(=O)N[C@@H]1C(=O)N2[C@@H]1SC(C)(C)[C@@H]2C(=O)O` [Oxacillin sodium]: 97%.

In turn, `CN(C)CCCC1(c2ccc(F)cc2)OCc2cc(C#N)ccc21` (configuration not stated) [Citalopram Hydrobromide] gave a planktonic growth of 99%. `CCCC(CCC)C(=O)O` [Valproic acid]: the planktonic growth amounted to 87%.

For the compound `CC(C)(C)NCC(O)c1ccc(O)c(CO)c1` (configuration not stated) [Salbutamol], the planktonic growth worked out at 93%.

For the compound `Cn1c(=O)c2c(ncn2C)n(C)c1=O` [Caffeine], the planktonic growth was determined as 96%. `Cc1c(OCC(F)(F)F)ccnc1C[S+]([O-])c1nc2ccccc2[nH]1` (configuration not stated) [Lansoprazole] showed a planktonic growth of 98%. Compound `COC(=O)Nc1nc2cc(C(=O)c3ccc(F)cc3)ccc2[nH]1` [Flubendazol] yielded a planktonic growth of 96.5 ± 0.71%. For `CC(C)(C)NC(=O)[C@@H]1CN(Cc2cccnc2)CCN1C[C@@H](O)C[C@@H](Cc1ccccc1)C(=O)N[C@H]1c2ccccc2C[C@H]1O` [Indinavir sulfate] the value was 91%; for `O=C(O[C@@H]1C[C@@H]2C[C@H]3C[C@H](C1)N2CC3=O)c1c[nH]c2ccccc12` [Dolasetron mesilate], 103%; for `CN(C)CCC(c1ccccc1)c1ccccn1` (configuration not stated) [Pheniramine maleate], 100%. As for `Cc1c(O)cccc1C(=O)N[C@@H](CSc1ccccc1)[C@H](O)CN1C[C@H]2CCCC[C@H]2C[C@H]1C(=O)NC(C)(C)C` [Nelfinavir mesylate], the planktonic growth came out at 117%. Next, `CCSc1ccc2c(c1)N(CCCN1CCN(C)CC1)c1ccccc1S2` [Thiethylperazine dimalate]: 108%. Compound `O=C(O)c1cc(=O)c2c(OCC(O)COc3cccc4oc(C(=O)O)cc(=O)c34)cccc2o1` [Cromolyn disodium salt] showed a planktonic growth of 92%. For `CCCCOc1ccc(CC(=O)NO)cc1` [Bufexamac] the value was 102%. The compound `CC(=O)OC(C)C[N+](C)(C)C` (configuration not stated) [Methacholine chloride] displayed a planktonic growth of 95%. For `NC[C@H]1CC[C@H](C(=O)O)CC1` [Tranexamic acid] the value was 100%; for `C=CCc1ccccc1OCC(O)CNC(C)C` (configuration not stated) [Alprenolol hydrochloride], 113%; for `Cc1ccc(O)c([C@H](CCN(C(C)C)C(C)C)c2ccccc2)c1` [Tolterodine tartrate], 93%. The compound `CCCC(C(=O)OCCN(CC)CC)(c1ccccc1)c1ccccc1` [Proadifen hydrochloride] returned a planktonic growth of 90%. In the case of `C=CC[N@@+]12CC[C@@]34c5ccccc5N5/C=C6/[C@H]7C[C@H]8[C@@]9(CC[N@@+]8(CC=C)C/C7=C/CO)c7ccccc7N(/C=C(/[C@@H](C[C@@H]31)/C(=C\CO)C2)[C@H]54)[C@@H]69` [Alcuronium chloride], the planktonic growth turned out to be 95%. Regarding `Clc1ccc(COC(Cn2ccnc2)c2ccc(Cl)cc2Cl)cc1` (configuration not stated) [Econazole nitrate], the planktonic growth came out at 83%.

Compound `CO/N=C1\CN(c2nc3c(cc2F)c(=O)c(C(=O)O)cn3C2CC2)CC1CN` (configuration not stated) [Gemifloxacin mesylate] showed a planktonic growth of 25%. `Clc1ccccc1C(c1ccccc1)(c1ccccc1)n1ccnc1` [Clotrimazole] had a planktonic growth of 98%. `CCN(CCCc1ccccc1)CCCc1ccccc1` [Alverine citrate salt] returned a planktonic growth of 91%.

In the case of `CCN(CC)C(=O)N1CCN(C)CC1` [Diethylcarbamazine citrate], the planktonic growth was determined as 99%. Take `O=P(O)(O)C(O)(Cc1cccnc1)P(=O)(O)O` [Risedronic acid monohydrate]: the planktonic growth turned out to be 94%. Compound `CC(C)(Oc1ccc(C2CC2(Cl)Cl)cc1)C(=O)O` (configuration not stated) [Ciprofibrate] showed a planktonic growth of 93%. In turn, `C=CCN1CCCC1CNC(=O)c1cc2nn[nH]c2cc1OC` (configuration not stated) [Alizapride hydrochloride] yielded a planktonic growth of 95%. The compound `CC1=C(C(=O)O)N2C(=O)[C@@H](NC(=O)[C@H](N)c3ccc(O)cc3)[C@H]2SC1` [Cefadroxil] had a planktonic growth of 97%. `CNC1(C)C2CCC(C2)C1(C)C` (configuration not stated) [Mecamylamine hydrochloride] had a planktonic growth of 65.5 ± 59%. For `Cn1c(=O)c2c(ncn2CC(O)CO)n(C)c1=O` (configuration not stated) [Diprophylline] the value was 95%.

Regarding `NC(=O)c1cccnc1` [Nicotinamide], the planktonic growth was 109%. For `CC(=C(CCO)SSCC1CCCO1)N(C=O)Cc1cnc(C)nc1N` (stereo in doubt) [Fursultiamine Hydrochloride] the value was 97%; for `CCC(C)(CN(C)C)OC(=O)c1ccccc1` (configuration not stated) [Amyleine hydrochloride], 109%; for `C=C(NC(=O)C(=C)NC(=O)c1csc(C2=N[C@@H]3c4csc(n4)[C@H]4NC(=O)c5csc(n5)[C@H]([C@](C)(O)[C@@H](C)O)NC(=O)[C@H]5CSC(=N5)/C(=C/C)NC(=O)[C@H]([C@@H](C)O)NC(=O)c5csc(n5)[C@]3(CC2)NC(=O)[C@H](C)NC(=O)C(=C)NC(=O)[C@H](C)NC(=O)[C@H]([C@@H](C)CC)N[C@@H]2C=Cc3c([C@H](C)O)cc(nc3[C@H]2O)C(=O)O[C@@H]4C)n1)C(N)=O` [Thiostrepton], 115%.
